# Measured values: PubChem BioAssay AID1030 (National Center for Advancing Translational Sciences (NCATS), 2008)
# The campaign covered roughly 220,000 compounds. About 16,000 (7.3%) were called active. Inconclusive results, whose numbers are uncertain, are shown with a selection of clear calls. Calls come from the whole dose curve; as a rule, active = well fitted inhibition curve with a large enough effect (not every such curve was filed as active); inconclusive = small, poorly fitted or top-dose-only effect, or another doubt; inactive = no such curve, though single readings can be large or run the other way. No potency is given beside an inconclusive call; the fits are too rough.
# Target: Aldehyde dehydrogenase 1A1 (Homo sapiens) (UniProt P00352)
# Experiment: qHTS Assay for Inhibitors of Aldehyde Dehydrogenase 1 (ALDH1A1);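 for activity, negative = inhibition: plate controls were no enzyme wells and a reference inhibitor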
# Conditions: Purified ALDH1A1, NADH fluorescence, propionaldehyde substrate; series mostly up to 75.3 µM; activity, negative = inhibition: at the top concentration
# Potency is the fitted concentration of half-maximal effect; tags give direction and shape of the fitted curve.
# Sequence of UniProt P00352 (P00352 whole entry, looked up): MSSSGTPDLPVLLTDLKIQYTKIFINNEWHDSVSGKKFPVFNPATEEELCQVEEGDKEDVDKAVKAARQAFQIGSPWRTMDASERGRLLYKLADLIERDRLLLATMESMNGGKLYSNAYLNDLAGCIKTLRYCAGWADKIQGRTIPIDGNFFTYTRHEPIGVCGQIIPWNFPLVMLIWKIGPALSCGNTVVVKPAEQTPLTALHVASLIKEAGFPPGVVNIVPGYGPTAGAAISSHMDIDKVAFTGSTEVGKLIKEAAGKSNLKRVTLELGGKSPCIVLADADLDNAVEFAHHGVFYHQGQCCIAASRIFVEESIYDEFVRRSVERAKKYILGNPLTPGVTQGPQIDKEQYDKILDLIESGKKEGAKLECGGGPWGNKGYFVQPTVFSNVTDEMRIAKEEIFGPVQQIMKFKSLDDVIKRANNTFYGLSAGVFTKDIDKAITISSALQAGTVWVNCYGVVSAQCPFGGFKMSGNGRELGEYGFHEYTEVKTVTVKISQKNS
Compound,Potency,"activity, negative = inhibition"
CCOC(=O)c1ccccc1NC(=O)c1cn(-c2ccc(C)c(C)c2)c(=O)c2ccccc12,"inconclusive [inhibitor, single point]",
O=c1oc2c(CN3CCCCC3)c(O)ccc2c2c1CCCC2,"inconclusive [inhibitor, partial curve]",
Cn1c(=O)n(-c2ccc(Cl)cc2)c(=O)c2c3c(sc21)COC(C)(C)C3,"inconclusive [inhibitor, full curve]",
O=[N+]([O-])c1ccccc1/C=N/Nc1nccnc1Cl,"inconclusive [inhibitor, single point]",
CCN(CC)CC(=O)Nc1ccc2c(c1)Nc1ccccc1CC2,active: 20 µM,
CCCCCCNC(=O)CCNS(=O)(=O)c1ccc(C)cc1,"inconclusive [inhibitor, partial curve, poor fit]",
CC(=O)Cn1nnc2sc(-c3ccccc3)cc2c1=O,"inconclusive [inhibitor, single point]",
Cc1cc(=O)[nH]c(SCC(=O)O)c1C#N,,inactive: -7.18%
COc1ccccc1NC(=O)N1c2ccc(F)cc2CCC1C (centres undefined),active: 22.4 µM,
CCOC(=O)C(=O)C1C(=O)Nc2ccccc21 (centres undefined),active: 14.1 µM,
COC(=O)c1ccc(-n2nc(C(F)(F)F)c3c2-c2ccoc2CC3)cc1,"inconclusive [inhibitor, single point]",
Cc1ccc2nc(/C(C#N)=C/c3cn[nH]c3-c3ccc(F)cc3)[nH]c2c1,"inconclusive [inhibitor, partial curve]",
N#Cc1nc(COc2ccccc2)oc1N1CCCCCC1,"inconclusive [inhibitor, partial curve]",
COCc1cc(=O)[nH]c(Nc2nc(C)c3cc(OC)ccc3n2)n1,"inconclusive [inhibitor, full curve]",
O=C(CN1CCN(c2ncccn2)CC1)N(Cc1ccccc1)c1ccc(F)cc1,"inconclusive [inhibitor, single point]",
CC(=O)Nc1ccc2nc(-c3ccncc3)[nH]c2c1,"inconclusive [inhibitor, partial curve]",
Cc1ccc(S(=O)(=O)NC(C)C(=O)Nc2ccccc2C(=O)N2CCCC2)cc1 (centres undefined),"inconclusive [inhibitor, single point]",
CC1(C)CC(N(Cc2cccs2)C(=O)c2ccco2)CCO1 (centres undefined),active: 10 µM,
CCC(=O)Nc1cc2nn(-c3ccccc3)nc2cc1Cl,"inconclusive [inhibitor, partial curve]",
